Laboratory results published in publication PMC7303255.
These are yes or no findings as the source states them, for the method shown. Some entries that bind do so weakly or less than the wild type.

By UniProt entry, the sequences of proteins in these tests, tags left out. Where a name states a change or a piece, a line headed by the entry shows the natural chain unless it says otherwise.
UniProt Q39057: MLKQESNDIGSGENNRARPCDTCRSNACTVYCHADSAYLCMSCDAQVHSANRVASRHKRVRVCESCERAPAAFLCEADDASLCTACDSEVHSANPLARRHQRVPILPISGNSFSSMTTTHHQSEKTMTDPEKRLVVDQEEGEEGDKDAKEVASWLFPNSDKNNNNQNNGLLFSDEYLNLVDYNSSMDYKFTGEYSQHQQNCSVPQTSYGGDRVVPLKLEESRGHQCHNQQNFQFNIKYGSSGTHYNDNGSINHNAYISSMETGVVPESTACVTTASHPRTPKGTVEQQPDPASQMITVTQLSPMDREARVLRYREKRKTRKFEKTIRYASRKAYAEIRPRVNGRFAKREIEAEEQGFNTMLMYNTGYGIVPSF

T1: full-length CIA2 (CIA2FL) in pAS2-1 or pACT2 (Arabidopsis thaliana) (UniProt Q9LU68)
T1 sequence: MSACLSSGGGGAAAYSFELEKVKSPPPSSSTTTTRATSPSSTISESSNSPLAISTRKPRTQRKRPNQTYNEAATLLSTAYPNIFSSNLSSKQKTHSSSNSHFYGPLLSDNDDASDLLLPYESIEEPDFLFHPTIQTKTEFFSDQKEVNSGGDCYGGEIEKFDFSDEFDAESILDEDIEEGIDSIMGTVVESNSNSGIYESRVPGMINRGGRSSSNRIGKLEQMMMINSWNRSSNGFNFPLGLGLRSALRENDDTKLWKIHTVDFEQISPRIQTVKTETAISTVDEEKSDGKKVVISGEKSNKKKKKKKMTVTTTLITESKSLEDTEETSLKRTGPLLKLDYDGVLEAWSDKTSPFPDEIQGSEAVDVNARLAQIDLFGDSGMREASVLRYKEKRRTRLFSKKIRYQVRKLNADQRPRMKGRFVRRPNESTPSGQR

T2: CCT motif of CIA2 (CIA2 379-435aa) (Arabidopsis thaliana) (UniProt Q9LU68)
T2 sequence: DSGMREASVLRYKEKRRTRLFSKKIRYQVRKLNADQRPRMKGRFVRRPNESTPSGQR

T3: CIA2 330-435aa fragment (Arabidopsis thaliana) (UniProt Q9LU68)
T3 sequence: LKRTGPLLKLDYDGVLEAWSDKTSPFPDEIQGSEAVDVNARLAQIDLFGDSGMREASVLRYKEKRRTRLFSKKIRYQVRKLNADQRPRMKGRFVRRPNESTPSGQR

T4: CIA2 1-189aa fragment (Arabidopsis thaliana) (UniProt Q9LU68)
T4 sequence: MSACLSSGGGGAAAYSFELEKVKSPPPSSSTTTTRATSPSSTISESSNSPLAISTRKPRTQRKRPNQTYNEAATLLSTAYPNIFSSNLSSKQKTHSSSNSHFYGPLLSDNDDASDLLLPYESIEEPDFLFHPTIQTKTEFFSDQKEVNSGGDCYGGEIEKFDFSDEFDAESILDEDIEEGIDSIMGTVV

T5: CIA2 190-379aa fragment (Arabidopsis thaliana) (UniProt Q9LU68)
T5 sequence: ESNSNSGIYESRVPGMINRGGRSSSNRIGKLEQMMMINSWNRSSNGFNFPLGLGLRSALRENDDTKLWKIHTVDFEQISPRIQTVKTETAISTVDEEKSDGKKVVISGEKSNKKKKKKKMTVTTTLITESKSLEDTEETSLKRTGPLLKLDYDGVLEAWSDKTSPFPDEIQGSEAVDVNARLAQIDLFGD

B1: full-length ABSCISIC ACID … 3 (ABI3) in pACT2 (protein, UniProt Q01593 1-720)
chain: MKSLHVAANAGDLAEDCGILGGDADDTVLMDGIDEVGREIWLDDHGGDNNHVHGHQDDDLIVHHDPSIFYGDLPTLPDFPCMSSSSSSSTSPAPVNAIVSSASSSSAASSSTSSAASWAILRSDGEDPTPNQNQYASGNCDDSSGALQSTASMEIPLDSSQGFGCGEGGGDCIDMMETFGYMDLLDSNEFFDTSAIFSQDDDTQNPNLMDQTLERQEDQVVVPMMENNSGGDMQMMNSSLEQDDDLAAVFLEWLKNNKETVSAEDLRKVKIKKATIESAARRLGGGKEAMKQLLKLILEWVQTNHLQRRRTTTTTTNLSYQQSFQQDPFQNPNPNNNNLIPPSDQTCFSPSTWVPPPPQQQAFVSDPGFGYMPAPNYPPQPEFLPLLESPPSWPPPPQSGPMPHQQFPMPPTSQYNQFGDPTGFNGYNMNPYQYPYVPAGQMRDQRLLRLCSSATKEARKKRMARQRRFLSHHHRHNNNNNNNNNNQQNQTQIGETCAAVAPQLNPVATTATGGTWMYWPNVPAVPPQLPPVMETQLPTMDRAGSASAMPRQQVVPDRRQGWKPEKNLRFLLQKVLKQSDVGNLGRIVLPKKEAETHLPELEARDGISLAMEDIGTSRVWNMRYRFWPNNKSRMYLLENTGDFVKTNGLQEGDFIVIYSDVKCGKYLIRGVKVRQPSGQKPEAPPSSAATKRQNKSQRNINNNSPSANVVVASPTSQTVK
B2: full-length ARABIDOPSIS RESPONSE REGULATOR 3 (ARR3) in pACT2 (protein, UniProt Q9ZWS9 1-231)
chain: MAKDGGVSCLRRSEMIGIGIGELESPPLDSDQVHVLAVDDSLVDRIVIERLLRITSCKVTAVDSGWRALEFLGLDDDKAAVEFDRLKVDLIITDYCMPGMTGYELLKKIKESTSFKEVPVVIMSSENVMTRIDRCLEEGAEDFLLKPVKLADVKRLRSYLTRDVKVAAEGNKRKLTTPPPPPPLSATSSMESSDSTVESPLSMVDDEDSLTMSPESATSLVDSPMRSPGLA
B3: full-length NUCLEAR FACTOR Y, Subunit B1 (NF-YB1) in pACT2 (protein, UniProt Q9SLG0 1-141)
chain: MADTPSSPAGDGGESGGSVREQDRYLPIANISRIMKKALPPNGKIGKDAKDTVQECVSEFISFITSEASDKCQKEKRKTVNGDDLLWAMATLGFEDYLEPLKIYLARYRELEGDNKGSGKSGDGSNRDAGGGVSGEEMPSW
B4: full-length NUCLEAR FACTOR Y, Subunit C1 (NF-YC1) in pACT2 (protein, UniProt Q9SMP0 1-234)
chain: MDTNNQQPPPSAAGIPPPPPGTTISAAGGGASYHHLLQQQQQQLQLFWTYQRQEIEQVNDFKNHQLPLARIKKIMKADEDVRMISAEAPILFAKACELFILELTIRSWLHAEENKRRTLQKNDIAAAITRTDIFDFLVDIVPRDEIKDEAAVLGGGMVVAPTASGVPYYYPPMGQPAGPGGMMIGRPAMDPNGVYVQPPSQAWQSVWQTSTGTGDDVSYGSGGSSGQGNLDGQG
B5: full-length NUCLEAR FACTOR Y, Subunit C9 (NF-YC9) in pACT2 (protein, UniProt Q8L4B2 1-231)
chain: MDQQDHGQSGAMNYGTNPYQTNPMSTTAATVAGGAAQPGQLAFHQIHQQQQQQQLAQQLQAFWENQFKEIEKTTDFKNHSLPLARIKKIMKADEDVRMISAEAPVVFARACEMFILELTLRSWNHTEENKRRTLQKNDIAAAVTRTDIFDFLVDIVPREDLRDEVLGSIPRGTVPEAAAAGYPYGYLPAGTAPIGNPGMVMGNPGGAYPPNPYMGQPMWQQQAPDQPDQEN
B6: full-length CIA2 (CIA2FL) in pAS2-1 or pACT2 (protein, UniProt Q9LU68 1-435)
chain: T1 sequence

How the values were obtained:
Assay in all cases: two-hybrid; pairwise: GAL4 BD fusions in pAS2-1 (target) and GAL4 AD fusions in pACT2 (binder) in AH109; growth on SD/-Leu-Trp-His with various concentrations of 3-AT (20 or 50 mM), 30 °C, 6-9 days; colony-lift filter assay for lacZ
[1] = target: T1, full-length CIA2 (CIA2FL) in pAS2-1 or pACT2 (Arabidopsis thaliana)
[2] = target: T2, CCT motif of CIA2 (CIA2 379-435aa) (Arabidopsis thaliana)
[3] = target: T3, CIA2 330-435aa fragment (Arabidopsis thaliana)
[4] = target: T4, CIA2 1-189aa fragment (Arabidopsis thaliana)
[5] = target: T5, CIA2 190-379aa fragment (Arabidopsis thaliana)

binding [1]	binding [2]	binding [3]	binding [4]	binding [5]	Molecule
binds	no binding	no binding	binds	no binding	CO 298-373aa fragment (from UniProt Q39057 298-373) (domain or fragment)
binds	no binding	no binding	binds	no binding	CO 181-373aa fragment (from UniProt Q39057 181-373) (domain or fragment)
binds	no binding	no binding	binds	no binding	full-length CONSTANS (COFL) in pACT2 (from UniProt Q39057 1-373)
binds	no binding		binds		B1
binds	no binding		binds		B2
binds	no binding		binds		B3
binds	no binding		binds		B4
binds	no binding		binds		B5
binds	no binding	binds	binds		B6
